# Laboratory results reported in PubChem BioAssay AID1347120 (National Center for Advancing Translational Sciences (NCATS), 2019).
# Hit rate of the full screen: of about 390,000 compounds, about 930 (0.24%) were called active. The inconclusive results got no clear call from the source; some entries with a clear call stand among them for comparison. Calls follow the shape of the dose curve; as a rule, active = well fitted activation curve with a large enough effect; inconclusive = small, poorly fitted or top-dose-only effect; inactive = no such curve, though single readings can be large or run the other way. Potencies of inconclusive entries are doubtful fits and often do not repeat.
# Assay: qHTS for Suppressors of FUS Proteinopathy: Primary screen using FUS-linked yeast assay; also: nearly all actives have a fitted effect of over 55% in size
# Conditions: S. cerevisiae FUS-expressing, OD600, 24 h; Potency: growth rescue; series mostly up to 76.6 µM
# How it was run: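 FUS-expressing yeast, raffinose-pregrown, induced in 2% galactose minimal medium at OD 0.005; compounds in a dilution series, 24hr at 30C. Growth restoration read as absorbance at 600 nm. CP55940 positive control, DMSO negative.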
# Potency is read from the fitted curve at half-maximal effect; tags tell the direction and shape of the fitted curve.
row,SMILES,Potency
1,CCCCN(C(=O)Cc1cccs1)c1nnc(-c2cccnc2)s1,"inconclusive: 39.8 µM [activator, single point]"
2,CCOC(=O)[C@H]1[C@H]2COc3ccc(Br)cc3[C@H]2N2C(=O)CN(Cc3ccc(C)cc3)C(=O)[C@@]12C,"inconclusive: 22.4 µM [activator, single point]"
3,COc1cc(NS(=O)(=O)c2ccc(Br)cc2)c(OC)cc1NC(=O)c1ccco1,"inconclusive: 44.7 µM [activator, single point]"
4,O=C(Nc1cc(C(F)(F)F)ccc1N1CCOCC1)C1Cc2ccccc2CN1C(=O)c1ccco1 (centres undefined),"inconclusive: 35.5 µM [activator, single point]"
5,CC(C)OC(=O)C1C(=O)CC(C)(O)C(C(=O)OC(C)C)C1c1cccc([N+](=O)[O-])c1 (centres undefined),inactive
6,COCCOC(=O)N1CCCCC1c1cc(C(=O)NCc2ccc(Cl)c(Cl)c2)no1 (centres undefined),"inconclusive: 50.1 µM [activator, single point]"
7,CCN(CC)c1ccc(C(=C2C=CC(=[N+](CC)CC)C=C2)c2ccc(N(CC)CC)cc2)cc1,active: 35.5 µM
8,C[C@H](NC(=O)c1nc[nH]c1C(=O)N[C@@H](Cc1ccccc1)C(=O)OCc1ccccc1)c1ccccc1,"inconclusive: 12.6 µM [activator, partial curve, poor fit]"
9,CCc1ccccc1S(=O)(=O)Cc1ccc(C(=O)N2CCN(c3ccccc3OC)CC2)o1,inactive
10,CCOC(=O)c1cccc(NC(=O)c2cc(C)nc3c2c(C)nn3-c2ccc(C)cc2)c1,"inconclusive: 28.2 µM [activator, single point]"
11,CC(=O)Nc1ccc(/C(C)=N/Nc2nc(Nc3cccc4ccccc34)nc(N3CCOCC3)n2)cc1,"inconclusive: 25.1 µM [activator, single point]"
12,COC(=O)C(c1ccccc1)N(Cc1cccc(CN(C(C(=O)OC)c2ccccc2)S(C)(=O)=O)c1)S(C)(=O)=O (centres undefined),"inconclusive: 28.2 µM [activator, single point]"
13,Cc1c([N+](=O)[O-])cnc(Sc2ccccc2)c1[N+](=O)[O-],inactive
14,CCOC(=O)[C@@]12CCCC3=C1N(CCC3)C(=O)[C@H]2CC(=O)NCCCCc1ccccc1,inactive
15,CCOc1ccc(NC(=O)C2CCCN(S(=O)(=O)c3ccc4c(c3)CCCN4C(C)=O)C2)cc1 (centres undefined),"inconclusive: 8.91 µM [activator, single point]"
16,COc1ccc(-c2nnc(SCC(=O)NN=C/C=C\c3ccco3)n2-c2ccc(OC)cc2)cc1,"inconclusive: 15.8 µM [activator, partial curve]"
17,Cn1c(=O)c2[nH]c(SCC(=O)NCCc3cccc(F)c3)nc2n(C)c1=O,inactive
18,S=C(NCc1ccc2c(c1)OCO2)NCc1ccc2c(c1)OCO2,inactive
19,CC(C)(C)OC(=O)N1CCC(c2c(C(=O)N3CCN(c4ccccn4)CC3)cnn2-c2cccc(F)c2)CC1,inactive
20,CCOc1ccc(CCNC(=O)c2cc(-c3ccccc3)c(N3CCOCC3)s2)cc1OCC,"inconclusive: 11.2 µM [activator, single point]"

row,SMILES,Potency
1,CCOC(=O)c1c(CSc2ccccc2)oc2ccc(O)cc12,inactive
2,CCOC(=O)c1ccc(NS(=O)(=O)c2ccc3c(c2)CCN3C(=O)CC)cc1,inactive
3,CCOC(=O)[C@@]12CCCC3=C1N(CCC3)C(=O)[C@H]2CC(=O)NCc1cccc2ccccc12,"inconclusive: 39.8 µM [activator, single point]"
4,COc1cc2c(=O)c(S(=O)(=O)c3ccc(C(C)C)cc3)cn(Cc3ccccc3C)c2cc1OC,"inconclusive: 25.1 µM [activator, partial curve, poor fit]"
5,Cc1ccc(S(=O)(=O)N/N=C2/CC(c3ccccc3)Oc3ccccc32)cc1 (centres undefined),"inconclusive: 0.891 µM [activator, full curve, poor fit]"
6,CCOC(=O)N1CCc2c(sc(NCc3cccs3)c2C(=O)Nc2cc(Cl)ccc2OC)C1,"inconclusive: 35.5 µM [activator, single point]"
7,Cc1ccc(-c2ccc(CN3C(C(C)C)C(=O)N(Cc4cn(Cc5ccco5)nn4)CCS3(=O)=O)cc2)cc1 (centres undefined),"inconclusive: 28.2 µM [activator, single point]"
8,COc1ccccc1N1CCN(C(=O)c2ccc3c(c2)N(Cc2cc(C)ccc2C)C(=O)c2ccccc2S3(=O)=O)CC1,inactive
9,CCCn1c(C(=O)OC)cc2c1ccn2-c1ccc(F)cc1,inactive
10,COC(=O)[C@]12C[C@H](CC(=O)N3CCC(c4ccccc4)CC3)C(=O)N(Cc3ccc4c(c3)OCO4)C1=C[C@H](C(C)C)O[C@@H]2C1CC1,inactive
11,COc1ccccc1N(C)S(=O)(=O)c1ccc(C(=O)Nc2cc(OC)c(OC)c(OC)c2)cc1,inactive
12,CCOC(=O)C1CCN(C(=O)c2sc3ncn(CC(=O)N4CCCCC4)c(=O)c3c2C)CC1,inactive
13,CC1(C(=O)N2CCC(CC3CC(c4cccc(Br)c4)=NO3)(C(=O)NCC3CCCCC3)CC2)CC1 (centres undefined),"inconclusive: 44.7 µM [activator, single point]"
14,COc1cccc(NC(=O)CN2C(=O)CC(c3ccco3)Sc3ccccc32)c1 (centres undefined),"inconclusive: 35.5 µM [activator, single point]"
15,NC(=O)c1c(N)[nH]c(C(=O)c2ccccc2)c1-c1ccccc1C(F)(F)F,inactive
16,COc1ccc(-c2n(CC(=O)OC3CC(C)CCC3C(C)C)c3ccccc3[n+]2C)cc1 (centres undefined),"inconclusive: 56.2 µM [activator, partial curve, poor fit]"
17,COc1ccc(C(=O)NCc2ccc3c(c2)cc(C)n3C)cc1,"inconclusive: 28.2 µM [activator, single point]"
18,CCCCCCCCN1C(=O)[C@H](CC(=O)NCC23CC4CC(CC(C4)C2)C3)C[C@@]2(C(=O)OCC)CCC=C12,"inconclusive: 7.94 µM [activator, full curve]"
19,CC(C)N(C(=O)[C@H]1CC(CC(=O)NCc2cccc(C(F)(F)F)c2)C(=O)N2CCc3c([nH]c4ccccc34)[C@]12C)C(C)C (some centres undefined),"inconclusive: 12.6 µM [activator, partial curve, poor fit]"
